Where a SMILES comes first, the peptide text is derived from it. [ ]: non-standard residue; d: D form. The star is where a group is joined. ξ: configuration not given here. Doxorubicin(3'-N) = COc1cccc2c1C(=O)c1c(O)c3c(c(O)c1C2=O)C[C@@](O)(C(=O)CO)C[C@@H]3O[C@H]1C[C@H](N*)[C@H](O)[C@H](C)O1; X5 = CN(CCNC(=O)c1cc(Oc2ccc(NC(=O)Nc3ccc(Cl)c(C(F)(F)F)c3)c(F)c2)ccn1)*; X10 = CN(CCNC(=O)c1cc(Oc2ccc(NC(=O)Nc3ccc(Cl)c(C(F)(F)F)c3)cc2)ccn1)*; Mal(CH2CH2O)6CH2CH2CO = O=C1C=CC(=O)N1CCOCCOCCOCCOCCOCCOCCC(=O)*; MaleimidoPEG4propanoyl = O=C1C=CC(=O)N1CCOCCOCCOCCOCCC(=O)*; X4 = [NH3+][Pt-2]1([NH3+])[O]C(=O)C2(CN(*)C2)C(=O)[O]1; Hexanoyl(6-maleimido) = O=C1C=CC(=O)N1CCCCCC(=O)*; Butanoyl(4-maleimido) = O=C1C=CC(=O)N1CCCC(=O)*; Propanoyl(3-maleimido) = O=C1C=CC(=O)N1CCC(=O)*; X1 = O=C1C=CC(=O)N1CCOCCOCCOCCC(=O)*; PEG6 = NCCOCCOCCOCCOCCOCCOCCC(=O)O; PEG4 = NCCOCCOCCOCCOCCC(=O)O; PEG3 = NCCOCCOCCOCCC(=O)O; PEG2 = NCCOCCOCCC(=O)O; ξL = CC(C)CC(N)C(=O)O Some results are limits rather than exact numbers.

The data set is described as follows: Water solubility test (observation and HPLC). It counts as physicochemical. Conditions: thermodynamic from solid; lyophilized compound dissolved in water; checked by observation and HPLC (>95%). On the procedure: The compounds prepared in accordance with the examples of the disclosure and the reference compounds C1, C2, C3 and C4 were lyophilized (−70° C.).
For the compound `COc1cccc2c1C(=O)c1c(O)c3c(c(O)c1C2=O)C[C@@](O)(C(=O)CO)C[C@@H]3O[C@H]1C[C@H](NC(=O)[C@H](CC(C)C)NC(=O)[C@H](CC(N)=O)NC(=O)[C@H](C)NC(=O)[C@H](C)NC(=O)[C@H](CC(=O)O)NC(=O)CCCCCN2C(=O)C=CC2=O)[C@H](O)[C@H](C)O1` [QHL-120-DOX] ({Hexanoyl(6-maleimido)}-DAANL-{Doxorubicin(3'-N)}), the solubility (commonly how much of the substance goes into solution per volume) is greater than 10000 µg/mL. Take `COc1cccc2c1C(=O)c1c(O)c3c(c(O)c1C2=O)C[C@@](O)(C(=O)CO)C[C@@H]3O[C@H]1C[C@H](NC(=O)[C@H](CC(C)C)NC(=O)[C@H](CC(N)=O)NC(=O)[C@H](C)NC(=O)[C@H](C)NC(=O)[C@H](CCCCN)NC(=O)CCCCCN2C(=O)C=CC2=O)[C@H](O)[C@H](C)O1` [QHL-135-DOX] ({Hexanoyl(6-maleimido)}-KAANL-{Doxorubicin(3'-N)}): the solubility is greater than 5000 µg/mL.

`COc1cccc2c1C(=O)c1c(O)c3c(c(O)c1C2=O)C[C@@](O)(C(=O)CO)C[C@@H]3O[C@H]1C[C@H](NC(=O)[C@H](CC(C)C)NC(=O)[C@H](CC(N)=O)NC(=O)[C@H](C)NC(=O)[C@H](C)NC(=O)[C@H](CO)NC(=O)CCCCCN2C(=O)C=CC2=O)[C@H](O)[C@H](C)O1` [QHL-129-DOX] ({Hexanoyl(6-maleimido)}-SAANL-{Doxorubicin(3'-N)}): the solubility is greater than 5000 µg/mL. In turn, `C[C@@H](NC(=O)CCOCCOCCOCCNC(=O)CCN1C(=O)C=CC1=O)C(=O)N[C@H](C)C(=O)N[C@H](CC(N)=O)C(=O)Nc1ccc(COC(=O)N2CC(C)(C)c3ccc(NC(=O)c4cccnc4NCc4ccncc4)cc32)cc1` [QHL-086-Motesani] yielded a solubility greater than 20000 µg/mL. The same measure for `COc1cccc2c1C(=O)c1c(O)c3c(c(O)c1C2=O)C[C@@](O)(C(=O)CO)C[C@@H]3O[C@H]1C[C@H](NC(=O)[C@H](CC(C)C)NC(=O)[C@H](CC(N)=O)NC(=O)[C@H](C)NC(=O)[C@H](C)NC(=O)[C@H](CC(=O)O)NC(=O)CCN2C(=O)C=CC2=O)[C@H](O)[C@H](C)O1` [QHL-114-DOX] ({Propanoyl(3-maleimido)}-DAANL-{Doxorubicin(3'-N)}): greater than 15000 µg/mL. Regarding `CC(C)CC(NC(=O)[C@@H](CC(N)=O)NC(=O)[C@@H](C)NC(=O)[C@@H](C)NC(=O)CCOCCOCCOCCNC(=O)CCN1C(=O)C=CC1=O)C(=O)N(C)CCNC(=O)c1cc(Oc2ccc(NC(=O)Nc3ccc(Cl)c(C(F)(F)F)c3)c(F)c2)ccn1` (some centres unmarked) [QHL-090-compound b] ({Propanoyl(3-maleimido)-PEG3}-[dA][dA][dN][ξL]-X5), the solubility was greater than 10000 µg/mL. For `COc1cccc2c1C(=O)c1c(O)c3c(c(O)c1C2=O)C[C@@](O)(C(=O)CO)C[C@@H]3O[C@H]1C[C@H](NC(=O)[C@H](CC(C)C)NC(=O)[C@H](CC(N)=O)NC(=O)[C@H](C)NC(=O)[C@H](C)NC(=O)[C@H](CCCNC(=N)N)NC(=O)CCCCCN2C(=O)C=CC2=O)[C@H](O)[C@H](C)O1` [QHL-136-DOX] ({Hexanoyl(6-maleimido)}-RAANL-{Doxorubicin(3'-N)}), the solubility is greater than 2000 µg/mL. Consider `COc1cccc2c1C(=O)c1c(O)c3c(c(O)c1C2=O)C[C@@](O)(C(=O)CO)C[C@@H]3O[C@H]1C[C@H](NC(=O)[C@H](CC(C)C)NC(=O)[C@H](CC(N)=O)NC(=O)[C@H](C)NC(=O)[C@H](C)NC(=O)[C@H](CC(=O)O)NC(=O)CCOCCOCCOCCOCCNC(=O)CCN2C(=O)C=CC2=O)[C@H](O)[C@H](C)O1` [QHL-054-DOX] ({Propanoyl(3-maleimido)-PEG4}-DAANL-{Doxorubicin(3'-N)}), for which the solubility was greater than 25000 µg/mL.

The compound `C[C@H](NC(=O)CCOCCOCCOCCOCCOCCOCCNC(=O)CCN1C(=O)C=CC1=O)C(=O)N[C@@H](C)C(=O)N[C@H](CC(N)=O)C(=O)Nc1ccc(COC(=O)OCC(=O)[C@]2(O)CCC3[C@H]4CCC5=CC(=O)C=C[C@@]5(C)C4C(=O)C[C@]32C)cc1` (some centres unmarked) [QHL-095-prednisone] came in with a solubility greater than 10000 µg/mL. In turn, `COc1cccc2c1C(=O)c1c(O)c3c(c(O)c1C2=O)C[C@@](O)(C(=O)CO)C[C@@H]3O[C@H]1C[C@H](NC(=O)[C@H](CC(C)C)NC(=O)[C@H](CC(N)=O)NC(=O)[C@H](C)NC(=O)[C@H](C)NC(=O)[C@H](CCC(=O)O)NC(=O)CCOCCOCCOCCOCCOCCOCCN2C(=O)C=CC2=O)[C@H](O)[C@H](C)O1` [QHL-024-DOX] ({Mal(CH2CH2O)6CH2CH2CO}-EAANL-{Doxorubicin(3'-N)}) yielded a solubility greater than 30000 µg/mL. Take `CC(C)C[C@H](NC(=O)[C@H](CC(N)=O)NC(=O)[C@H](C)NC(=O)[C@H](C)NC(=O)CCOCCOCCOCCNC(=O)CCCN1C(=O)C=CC1=O)C(=O)N1CC2(C1)C(=O)[O][Pt-2]([NH3+])([NH3+])[O]C2=O` [QHL-102-N-CBP] ({Butanoyl(4-maleimido)-PEG3}-AANL-X4): the solubility is greater than 10000 µg/mL.

`COc1cccc2c1C(=O)c1c(O)c3c(c(O)c1C2=O)C[C@@](O)(C(=O)CO)C[C@@H]3O[C@H]1C[C@H](NC(=O)[C@H](CC(C)C)NC(=O)[C@H](CC(N)=O)NC(=O)[C@H](C)NC(=O)[C@H](C)NC(=O)[C@@H](NC(=O)CCCCCN2C(=O)C=CC2=O)[C@@H](C)O)[C@H](O)[C@H](C)O1` [QHL-130-DOX] ({Hexanoyl(6-maleimido)}-TAANL-{Doxorubicin(3'-N)}) showed a solubility greater than 2000 µg/mL.

Consider `COc1cccc2c1C(=O)c1c(O)c3c(c(O)c1C2=O)C[C@@](O)(C(=O)CO)C[C@@H]3O[C@@H]1C[C@H](NC(=O)OCc2ccc(NC(=O)[C@@H](CC(N)=O)NC(=O)[C@@H](C)NC(=O)[C@@H](C)NC(=O)CCOCCOCCOCCNC(=O)CCN3C(=O)C=CC3=O)cc2)[C@@H](O)[C@H](C)O1` [QHL-089-epirubicin], for which the solubility is greater than 20000 µg/mL. Regarding `COc1cccc2c1C(=O)c1c(O)c3c(c(O)c1C2=O)C[C@@](O)(C(=O)CO)C[C@@H]3O[C@H]1C[C@H](NC(=O)[C@H](CC(C)C)NC(=O)[C@H](CC(N)=O)NC(=O)[C@H](C)NC(=O)[C@H](C)NC(=O)[C@H](CCC(=O)O)NC(=O)CCOCCOCCOCCN2C(=O)C=CC2=O)[C@H](O)[C@H](C)O1` [QHL-022-DOX] (X1-EAANL-{Doxorubicin(3'-N)}), the solubility was greater than 20000 µg/mL.

As to `COc1cccc2c1C(=O)c1c(O)c3c(c(O)c1C2=O)C[C@@](O)(C(=O)CO)C[C@@H]3O[C@H]1C[C@H](NC(=O)[C@H](CC(C)C)NC(=O)[C@H](CC(N)=O)NC(=O)[C@H](C)NC(=O)[C@H](C)NC(=O)[C@H](CC(=O)O)NC(=O)CCOCCOCCOCCOCCN2C(=O)C=CC2=O)[C@H](O)[C@H](C)O1` [QHL-035-DOX] (MaleimidoPEG4propanoyl-DAANL-{Doxorubicin(3'-N)}), the solubility is greater than 25000 µg/mL.

`CC(C)CC(NC(=O)[C@@H](CC(N)=O)NC(=O)[C@@H](C)NC(=O)[C@@H](C)NC(=O)CCOCCOCCNC(=O)CCN1C(=O)C=CC1=O)C(=O)N(C)CCNC(=O)c1cc(Oc2ccc(NC(=O)Nc3ccc(Cl)c(C(F)(F)F)c3)cc2)ccn1` (some centres unmarked) [QHL-087-compound a] ({Propanoyl(3-maleimido)-PEG2}-[dA][dA][dN][ξL]-X10) yielded a solubility greater than 10000 µg/mL. In the case of `COc1cccc2c1C(=O)c1c(O)c3c(c(O)c1C2=O)C[C@@](O)(C(=O)CO)C[C@@H]3O[C@H]1C[C@H](NC(=O)[C@H](CC(C)C)NC(=O)[C@H](CC(N)=O)NC(=O)[C@H](C)NC(=O)[C@H](C)NC(=O)CCOCCOCCNC(=O)CCN2C(=O)C=CC2=O)[C@H](O)[C@H](C)O1` [QHL-087-DOX], the solubility is greater than 10000 µg/mL. `CC[C@H](C)[C@H](NC(=O)CCCCCN1C(=O)C=CC1=O)C(=O)N[C@@H](C)C(=O)N[C@@H](C)C(=O)N[C@@H](CC(N)=O)C(=O)N[C@@H](CC(C)C)C(=O)N[C@H]1C[C@H](O[C@H]2C[C@](O)(C(=O)CO)Cc3c(O)c4c(c(O)c32)C(=O)c2c(OC)cccc2C4=O)O[C@@H](C)[C@H]1O` [QHL-125-DOX] ({Hexanoyl(6-maleimido)}-IAANL-{Doxorubicin(3'-N)}): the solubility is greater than 2000 µg/mL. The same measure for `COc1cccc2c1C(=O)c1c(O)c3c(c(O)c1C2=O)C[C@@](O)(C(=O)CO)C[C@@H]3O[C@H]1C[C@H](NC(=O)[C@H](CC(C)C)NC(=O)[C@H](CC(N)=O)NC(=O)[C@H](C)NC(=O)[C@H](C)NC(=O)[C@H](CCC(=O)O)NC(=O)CCOCCOCCOCCOCCOCCOCCNC(=O)CCCN2C(=O)C=CC2=O)[C@H](O)[C@H](C)O1` [QHL-081-DOX] ({Butanoyl(4-maleimido)-PEG6}-EAANL-{Doxorubicin(3'-N)}): greater than 30000 µg/mL; for `COc1cccc2c1C(=O)c1c(O)c3c(c(O)c1C2=O)C[C@@](O)(C(=O)CO)C[C@@H]3O[C@H]1C[C@H](NC(=O)[C@H](CC(C)C)NC(=O)[C@H](CC(N)=O)NC(=O)[C@H](C)NC(=O)[C@H](C)NC(=O)[C@H](C)NC(=O)CCCCCN2C(=O)C=CC2=O)[C@H](O)[C@H](C)O1` [QHL-122-DOX] ({Hexanoyl(6-maleimido)}-AAANL-{Doxorubicin(3'-N)}): greater than 10000 µg/mL; for `COc1cccc2c1C(=O)c1c(O)c3c(c(O)c1C2=O)C[C@@](O)(C(=O)CO)C[C@@H]3O[C@H]1C[C@H](NC(=O)[C@H](CC(C)C)NC(=O)[C@H](CC(N)=O)NC(=O)[C@H](C)NC(=O)[C@H](C)NC(=O)[C@H](CC(=O)O)NC(=O)CCOCCOCCOCCNC(=O)CCCN2C(=O)C=CC2=O)[C@H](O)[C@H](C)O1` [QHL-072-DOX] ({Butanoyl(4-maleimido)-PEG3}-DAANL-{Doxorubicin(3'-N)}): greater than 25000 µg/mL. The same measure for `COc1cccc2c1C(=O)c1c(O)c3c(c(O)c1C2=O)C[C@@](O)(C(=O)CO)C[C@@H]3O[C@H]1C[C@H](NC(=O)[C@H](CC(C)C)NC(=O)[C@H](CC(N)=O)NC(=O)[C@H](C)NC(=O)[C@H](C)NC(=O)[C@H](CC(=O)O)NC(=O)CCOCCOCCOCCOCCNC(=O)CCCN2C(=O)C=CC2=O)[C@H](O)[C@H](C)O1` [QHL-078-DOX] ({Butanoyl(4-maleimido)-PEG4}-DAANL-{Doxorubicin(3'-N)}): greater than 25000 µg/mL; for `CC(C)C[C@H](NC(=O)[C@H](CC(N)=O)NC(=O)[C@H](C)NC(=O)[C@H](C)NC(=O)CCOCCOCCOCCOCCOCCOCCNC(=O)CCN1C(=O)C=CC1=O)C(=O)N1CC2(C1)C(=O)[O][Pt-2]([NH3+])([NH3+])[O]C2=O` [QHL-096-N-CBP] ({Propanoyl(3-maleimido)-PEG6}-AANL-X4): greater than 20000 µg/mL.

Source of the values: patent US20230414771A1, “PREPARATION AND USE OF IMMUNOSTIMULATORY CONJUGATED COMPLEXES FOR TARGETED DELIVERY AND ACTIVATION” (YAFEI SHANGHAI BIOLOGY MEDICINE SCIENCE & TECHNOLOGY CO., …, priority 2020, published 2023).
